Reference: PubChem BioAssay AID360 (National Center for Advancing Translational Sciences (NCATS), 2006)
Screen size: about 48,000 compounds; about 550 (1.1%) were called active. Not shown: some 4% with an inconclusive outcome. Rule as the data show it: active = potency below about 15 µM; inconclusive = mostly about 16 µM to 33 µM; inactive = weaker than that. The list shows a part of the results.

target: Lysosomal acid glucosylceramidase (Homo sapiens) (UniProt P04062); experiment: Glucocerebrosidase; conditions: purified enzyme, resorufin glucoside fluorescence (screen aimed at inhibitors), 20 min;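 also: the screen sought inhibitors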
In short: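 Compounds titrated against 0.2 nM normal enzyme, 30 uM resorufin beta-D-glucopyranoside substrate, citrate/phosphate buffer with taurocholate and tween-20, pH 5.9. Reaction ran 20 min at room temperature; fluorescence (Ex 548/Em 600) gave AC50.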
Potency is read from the fitted curve at half-maximal effect.

Sequence of UniProt P04062 (P04062 whole entry, looked up): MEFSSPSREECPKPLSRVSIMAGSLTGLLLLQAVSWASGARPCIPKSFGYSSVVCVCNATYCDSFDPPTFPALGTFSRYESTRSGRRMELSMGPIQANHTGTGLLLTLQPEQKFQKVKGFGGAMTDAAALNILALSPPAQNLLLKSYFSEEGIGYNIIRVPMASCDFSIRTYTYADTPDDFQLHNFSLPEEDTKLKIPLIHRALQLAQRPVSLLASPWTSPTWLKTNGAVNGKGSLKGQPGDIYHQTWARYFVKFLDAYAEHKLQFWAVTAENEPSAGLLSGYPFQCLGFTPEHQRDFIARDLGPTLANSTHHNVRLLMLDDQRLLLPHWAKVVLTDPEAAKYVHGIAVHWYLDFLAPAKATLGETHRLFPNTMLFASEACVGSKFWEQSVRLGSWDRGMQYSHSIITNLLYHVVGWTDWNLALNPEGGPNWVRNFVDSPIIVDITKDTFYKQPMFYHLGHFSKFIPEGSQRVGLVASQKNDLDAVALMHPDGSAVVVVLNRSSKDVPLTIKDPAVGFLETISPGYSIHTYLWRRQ

Potency, inactive:
COCCCNC(=O)Cn1nnc(-c2ccccc2NC(=O)c2ccccc2F)n1 > 76.9 µM, O=C(Nc1c(Cl)cc(Cl)cc1C(=O)NCC1CCCO1)c1ccco1 (centres undefined) > 76.9 µM, C=CCn1c(SCC(=O)Nc2cc(NC(C)=O)ccc2OC)nnc1-c1cccnc1 > 76.9 µM, Cc1nn(Cc2ccc(C(=O)NC3CCCCC3)o2)c(C)c1Br > 76.9 µM, O=C(NCCNC(=O)C(F)(F)F)c1ccncc1 > 76.9 µM, CSc1nc2c(ccc3ccccc32)o1 > 76.9 µM, CC(C)OC(=O)Cn1c(=O)oc2ccccc21 > 76.9 µM, COC(=O)c1ccc(C(=S)N2CCOCC2)cc1 > 76.9 µM, CNc1nc(CC(C)=O)ns1 > 76.9 µM, COC(=O)COc1nc(C)c(Br)c(OC)n1 > 76.9 µM, CSc1ncccc1C(=O)OCC(=O)Nc1cc(C(F)(F)F)ccc1N1CCOCC1 > 76.9 µM, COc1cc(C2Nc3ccc4ncccc4c3C3=C2C(=O)CCC3)ccc1O (centres undefined) > 76.9 µM, COC(=O)Nc1nc(C)c(C(=O)N(C)C)s1 > 76.9 µM, Cc1sc2ncn(CC(=O)NCCCC(=O)N3CCN(c4ccccn4)CC3)c(=O)c2c1C > 76.9 µM, COc1ccc(S(=O)(=O)Nc2nc(C(F)(F)F)cs2)cc1 > 76.9 µM, Cc1cc2ncn(/N=C/c3cc(Br)ccc3O)c2cc1C > 76.9 µM, CCOC(=O)c1cc2sc(C)cc2n1CC(=O)NCCc1ccccc1 > 76.9 µM, CCOC(=O)C1CCCN(Cc2c(Cl)cccc2Cl)C1 (centres undefined) > 76.9 µM, Cn1c(=N)c(S(=O)(=O)c2ccc(Cl)cc2)cc2c(=O)n3ccccc3nc21 > 76.9 µM, Cc1nc(C)c(C(=O)Nc2nc3c(C)cccc3s2)o1 > 76.9 µM, COc1cccc2c1OC1(C)CC2NC(=O)N1c1cccc(C(=O)Nc2ccc3c(c2)OCCO3)c1 (centres undefined) > 76.9 µM, Cn1nc(C(=O)NCc2ccccn2)c2ccccc2c1=O > 76.9 µM, O=C(CN(C(=O)CCNC(=O)c1ccco1)c1ccccc1)NC1CCCC1 > 76.9 µM, CCC(C)NC(=O)Cn1c(=O)n(CCCCC(=O)NCc2ccco2)c(=O)c2ccccc21 (centres undefined) > 76.9 µM, CCCCN(CC)CCNC(=O)CN(C)S(=O)(=O)c1ccc2c(c1)c(=O)n(C)c(=O)n2C > 76.9 µM, O=C1CSC(=S)N1c1cccnc1 > 76.9 µM, CC(=O)Oc1c(S(=O)(=O)c2ccc(C)cc2)c(C)nn1-c1ccccc1 > 76.9 µM, O=C(Nc1nc(-c2ccco2)cs1)c1ccccc1 > 76.9 µM, O=C1c2ccccc2C(=O)N1c1nc2nccc(-c3ccccc3)n2n1 > 76.9 µM, Cc1ccc(S(=O)(=O)C2(C(=O)N(C)C3CCCCC3)CC2)cc1 > 76.9 µM, CS(=O)(=O)N(CC(=O)N1CCC(C(N)=O)CC1)C1CCCCC1 > 76.9 µM, CCOC(=O)C1CCN(C(=O)CC(NS(=O)(=O)c2ccc(OC)cc2)C(C)C)CC1 (centres undefined) > 76.9 µM, CCC(C)NC(=O)C1c2ccccc2C(=O)N1Cc1cc(OC)ccc1OC (centres undefined) > 76.9 µM, COc1cc(OC)cc(C(=O)Nn2cc(C(=O)N3CCN(C)CC3)c3ccccc3c2=O)c1 > 76.9 µM, COc1cccc2cc(C(=O)Nc3cccnc3N3CCOCC3)c(=O)oc12 > 76.9 µM, O=C(CSc1nc2ccccc2o1)N1CCCC1 > 76.9 µM, CC(=O)NCCn1c(SCc2cc(=O)n3cc(Cl)ccc3n2)nc2ccccc2c1=O > 76.9 µM, NC(=O)C1CCN(C2CC(=O)N(c3cccc(F)c3)C2=O)CC1 (centres undefined) > 76.9 µM, Cn1c(SCC(=O)NC2CC2)nnc1C(F)(F)F > 76.9 µM, O=C(COC(=O)C1CCCO1)Nc1cccc(C(F)(F)F)c1 (centres undefined) > 76.9 µM, CCCCOC(=O)c1ccc(N2C(=O)CC(N3CCN(C/C=C/c4ccccc4)CC3)C2=O)cc1 (centres undefined) > 76.9 µM, CCOC(=O)c1cc2occc2n1CC(=O)N1CCOCC1 > 76.9 µM, Cc1nc2[nH]c(=O)c3c(n2n1)NC1=C(C(=O)CC(C)(C)C1)C3c1ccccc1 (centres undefined) > 76.9 µM, CCCCSc1nc(C)c(CC(=O)OC)c(=O)[nH]1 > 76.9 µM, CCC1Sc2ccccc2N(CC(=O)NC2CCCC2)C1=O (centres undefined) > 76.9 µM, COc1ccc(-c2nnco2)cc1OC > 76.9 µM, CC(=O)C1=C(O)C(=O)N(Cc2ccccc2)C1c1ccco1 (centres undefined) > 76.9 µM, COc1ccc(OCC(=O)N2CCN(C(=O)COc3ccc(Br)cc3)CC2)cc1 > 76.9 µM, CON(C)c1nc(OCCNC(=O)OCc2ccc(Cl)cc2Cl)nc(N(C)C)n1 > 76.9 µM, CCCCC(=O)Nc1cccc(-c2nnc(-c3ccccc3)o2)c1 > 76.9 µM, Cn1c(CN2CCOCC2)c(C#N)c2ccccc21 > 76.9 µM, C=CCN1C(=O)CSC1=Nc1cccc(O)c1 > 76.9 µM, Cc1ccc2c(CN3C(=O)NC4(CCCCC4)C3=O)cc(=O)oc2c1C > 76.9 µM, COCCN(CCOC)c1ncc(Cl)c(C(=O)c2c(C)cc3ccccn23)n1 > 76.9 µM, C(=N\c1nc2ccccc2n1CCN1CCOCC1)/c1cccs1 > 76.9 µM, O=C1CCNc2cc3ccccc3cc21 > 76.9 µM, COc1ccccc1NC(=O)c1ccc(NS(=O)(=O)c2c(C)noc2C)cc1, CCOC(=O)NC1(C(F)(F)F)N=C(c2ccccc2)NC1=O (centres undefined) > 76.9 µM, N#Cc1ccc(CSc2nnc(-c3cccs3)n2-c2ccccc2)cc1 > 76.9 µM
